Experimental findings from patent publication US20180127502A1 (Memorial Sloan Kettering, published 2018) are described below.

The assay addresses human PD-1 monomer (human, UniProt Q15116 partial chain, limits assumed). The assay can be described thus: ELISA on PD-1 monomer (FIG. 1). The source says:
ET901 ScFv-Fc (mouse IgG1 Fc) served as the negative control.
(In general: In an ELISA, binding on a coated surface is turned into a signal by an enzyme label.)

Sequence of UniProt Q15116 (Q15116 25-167 limits assumed): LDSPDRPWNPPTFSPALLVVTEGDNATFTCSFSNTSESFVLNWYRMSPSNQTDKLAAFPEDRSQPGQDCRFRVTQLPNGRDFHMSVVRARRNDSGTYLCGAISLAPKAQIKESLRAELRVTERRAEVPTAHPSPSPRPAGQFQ

B1: anti-PD-1 scFv-Fc clone 27 (scFv linked to murine Fc) (Fc fusion)
chain: QSVLTQPPSVSVAPGKTARITCGGNNIGSKSVHWYQQRPGQAPVLVIYYDSDRPSGIPERFSGSNSGNTATLTISRVEAGDEADYYCQVWDSSSDYVFGIGTKVTVLGGGGGSGGGGSGGGGS[sequence of about 100 residues omitted]NYISMFDSWGQGTLVTVSS
notes: also called PD-1-27; not shown: murine Fc (mouse IgG1a) domain
Take B1: the binding result is recorded as “binds”.
